Results: PubChem BioAssay AID2546 (National Center for Advancing Translational Sciences (NCATS), 2010)
Screen size: about 310,000 compounds; about 11,000 (3.5%) were called active. The inconclusive results got no clear call from the source; some entries with a clear call stand among them for comparison. Calls come from the whole dose curve; as a rule, active = well fitted inhibition curve with a large enough effect; inconclusive = small, poorly fitted or top-dose-only effect, or effect the other way; inactive = flat fitted curve, though single readings scatter. No potency is given beside an inconclusive call; the fits are too rough.

Assay: VP16 counterscreen qHTS for inhibitors of ROR gamma transcriptional activity;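 note: Gal4-VP16 expression switched on by copper sulfate through the metallothionein promoter; nearly all actives have a fitted effect of over 50% in size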
Conditions: Drosophila S2 Gal4-VP16 UAS-luciferase, luminescence, 20 h; series mostly up to 53.6 µM
Potency is the fitted concentration of half-maximal effect; tags give direction and shape of the fitted curve.

Row | Compound | Potency
1 | Cc1nn2c(N3CCN(C)CC3)cc(C(C)(C)C)nc2c1-c1ccccc1 | inconclusive [inhibitor, single point]
2 | Cc1ccc(SC(=O)c2c(C)noc2-c2cc(C)on2)cc1 | inconclusive [inhibitor, single point]
3 | CO[C@H]1C[C@@H]2CC[C@@H](C)[C@@](O)(O2)C(=O)C(=O)N2CCCC[C@H]2C(=O)O[C@H]([C@H](C)C[C@@H]2CC[C@@H](O)[C@H](OC)C2)CC(=O)[C@H](C)/C=C(\C)[C@@H](O)[C@@H](OC)C(=O)[C@H](C)C[C@H](C)/C=C/C=C/C=C/1C | inconclusive [inhibitor, partial curve]
4 | Cc1oc(-c2ccc(-c3ccccc3)cc2)nc1CN(CCO)C(C)C | inconclusive [inhibitor, partial curve]
5 | CS(=O)(=O)N1N=C(c2ccc(Br)cc2)CC1c1cccs1 (centres undefined) | inconclusive [inhibitor, full curve, poor fit]
6 | CCOC(=O)c1cc2sccc2n1CCCN1C(=O)c2ccccc2C1=O | inconclusive [inhibitor, single point]
7 | COC(=O)c1cc(C(=O)Nc2nc3ccccc3[nH]2)cc([N+](=O)[O-])c1 | inactive
8 | CCCCCNc1nc(-c2ccccc2)cs1 | inconclusive [inhibitor, full curve]
9 | O=C(CN1CCCCC1)Nc1ccc(NC(=O)c2ccc(Cl)cc2)cc1Cl | inconclusive [inhibitor, single point]
10 | CC(C)c1ccc(/C=C/C(=O)NNC(=O)c2cccnc2)cc1 | inactive
11 | O=c1c(-c2ccc(F)cc2)coc2cc(O)ccc12 | inconclusive [inhibitor, full curve]
12 | Cc1c(C(=O)N2CCOCC2)sc2ncnc(N3CCc4ccccc4C3)c12 | inactive
13 | Cc1ccc(N(CC(O)Cn2nc(C)cc2C)S(=O)(=O)c2ccc3ccccc3c2)cc1 (centres undefined) | inconclusive [inhibitor, single point]
14 | COCCNC(=S)N/N=C(\C)c1ccc(Cl)c(Cl)c1Cl | active: 7.94 µM
15 | CCCn1c(/C=C/c2ccccc2)nc2ccccc21 | inconclusive [inhibitor, single point]
16 | O=C(N/N=C/c1ccc(Sc2nc3ccccc3s2)c([N+](=O)[O-])c1)c1ccccn1 | inactive
17 | CCN(CC)CCn1cnc2c1c(=O)[nH]c(=O)n2Cc1ccccc1 | inactive
18 | Cc1ccc(OCC(=O)NCCNC(=O)c2ccncc2)cc1C | inactive
19 | COc1ccc(NS(=O)(=O)c2ccc3oc(SCc4ccc(F)cc4)nc3c2)cc1 | inconclusive [inhibitor, single point]
20 | Cc1ccc(S(=O)(=O)N(C)C)cc1N | inactive
21 | Cc1occc1C(=O)Nc1cccc(Cl)c1Cl | inconclusive [activator, single point]
22 | C/C(=N\NC(=S)NCCc1ccccc1)c1ccc(C)cc1 | active: 5.01 µM

Row | Compound | Potency
23 | Cc1nn(-c2ccccc2)c(N)c1Sc1ccc([N+](=O)[O-])cc1 | inconclusive [inhibitor, partial curve]
24 | COc1ccc(S(=O)(=O)NCCOc2ccccc2)cc1OC | inconclusive [inhibitor, single point]
25 | O=C(N[C@H]1CCCCNC1=O)c1cc(COc2ccc(F)cc2F)on1 | inconclusive [inhibitor, single point]
26 | Cc1cc(CCCCCCCCc2cc(C)cc(=O)o2)oc(=O)c1 | inconclusive [activator, single point]
27 | COc1cccc(-n2cc(CNC(=O)C3CCC(=O)N(C4CC4)C3)cn2)c1 (centres undefined) | inactive
28 | COc1ccc(Cl)cc1NC(=S)NCc1cccs1 | inconclusive [inhibitor, single point]
29 | O=[N+]([O-])c1cccc(-c2nc(-c3ccccn3)no2)c1 | inconclusive [inhibitor, single point]
30 | c1ccc(CSc2nnc(-c3ccco3)c(-c3ccco3)n2)cc1 | inconclusive [inhibitor, single point]
31 | O=c1[nH]c(=S)[nH]c2nc(-c3cccs3)cc(C(F)(F)F)c12 | inactive
32 | CCCCn1c(N)c(C(=S)NC(=O)CC(C)C)c(=O)n(C)c1=O | active: 1.12 µM
33 | Cc1ccc(S(=O)(=O)c2nnn3c2nc(NC2CCN(Cc4ccccc4)CC2)c2ccccc23)cc1C | inconclusive [inhibitor, single point]
34 | Clc1ccc(/C=C\c2nccc3c2[nH]c2ccccc23)cc1 | inconclusive [inhibitor, partial curve]
35 | CCOc1ccc(NC(=S)NCCCN2CCN(c3ccc(OC)cc3)CC2)cc1 | inconclusive [inhibitor, single point]
36 | CC(=O)Nc1nnc(-c2c(-c3c(Cl)cccc3Cl)noc2C)o1 | inconclusive [inhibitor, single point]
37 | O=C(Nc1ccc(/C=C/c2nc3ccccc3o2)cc1)c1c(F)cccc1F | inconclusive [inhibitor, single point]
38 | COc1ccc(NC(=S)NC(NC(=O)c2cccc(Cl)c2)C(Cl)(Cl)Cl)c([N+](=O)[O-])c1 (centres undefined) | inconclusive [inhibitor, single point]
39 | C/C(=N\NC(=O)CNc1cccc2ccccc12)c1ccc(Br)s1 | inconclusive [inhibitor, single point]
40 | CCOC(=O)Cc1csc(NC(=O)Nc2ccc(F)cc2)n1 | inactive
41 | CCOc1ccc(OCC)c(NC(=O)CSc2nc3ccccc3c(=O)n2C)c1 | active: 20 µM
42 | CC(C)C(=O)N1CCN(c2ccccc2NC(=O)c2cccc(Cl)c2)CC1 | inactive
43 | CCn1c(=O)n(CC(=O)NCC2CCCO2)c(=O)c2c3c(sc21)COC(C)(C)C3 (centres undefined) | inconclusive [activator, full curve]
44 | Cc1cccc(C(=O)N2CCN(c3ccc(C(F)(F)F)cn3)CC2)c1C | inconclusive [inhibitor, single point]
